According to US20200338209A1, “ANTI-B7-H3 ANTIBODIES AND ANTIBODY DRUG CONJUGATES” (AbbVie Inc., priority 2016, published 2020):

Columns and labels:
[1] = Percentage aggregation of ADCs by size exclusion chromatography (SEC); format: physicochemical; conditions: huAb13 variants conjugated to payload CZ, Method A
Protocol: The DAR and percentage aggregation of ADCs synthesized were determined by LC-MS and size exclusion chromatography (SEC), respectively.
Size exclusion chromatography was performed using a Shodex KW802.5 column in 0.2 M potassium phosphate pH 6.2 with 0.25 mM potassium chloride and 15% IPA at a flow rate of 0.75 ml/min. The peak area absorbance at 280 nm was determined for each of the high molecular weight and monomeric eluents by integration of the area under the curve. The % aggregate fraction of the conjugate sample was determined by dividing the peak area absorbance at 280 nm for the high molecular weight eluent by the sum of the peak area absorbances at […] of the high molecular weight and monomeric eluents multiplied by 100%.

[2] = system: NCI-H847 (small cell lung cancer cell line); test: In vitro cell viability assay (CellTiter-Glo, 5 days), NCI-H847; format: cell-based, human; conditions: CZ conjugates of huAb13 variants; H847 cells; read-out: Cytotoxicity H847 Cell line IC50
Protocol: The tumor cell lines HCC38 (breast cancer), NCI-H1650 (NSCL), and NCI-H847 (small cell lung cancer cell line) were obtained from American Type Culture Collection (ATCC). Cells were grown in 96-well culture plates using recommended growth media overnight at a density of 5×10^3 (HCC38) or 20×10^3 (NCI-H847) or 40×10^3 (NCI-H1650) per well. The following day, treatments were added in fresh media to triplicate wells. Cellular viability was determined 5 days later using the CellTiter-Glo Luminescent Cell Viability Assay kit (Promega), as directed in the manufacturer's protocol. Cell viability was assessed as percentage of control untreated cells.

B1: huAb13v1-CZ (conjugate)
heavy: EVQLQESGPGLVKPSETLSLTCAVTGYSITSGYSWHWIRQFPGNGLEWMGYIHSSGSTNYNPSLKSRISISRDTSKNQFFLKLSSVTAADTAVYYCAGYDDYFEYWGQGTTVTVSSASTKGPSVFPLAPSSKSTSGGTAALGCLVKDYFPEPVTVSWNSGALTSGVHTFPAVLQSSGLYSLSSVVTVPSSSLGTQTYICNVNHKPSNTKVDKKV[omitted - human IgG1 Fc with changes]
light: DIQMTQSPSSLSASVGDRVTITCKASQNVGFNVAWYQQKPGKSPKALIYSASYRYSGVPSRFSGSGSGTDFTLTISSLQPEDFAEYFCQQYNWYPFTFGQGTKLEIKRTVAAPSVFIFPPSDEQLKSGTASVVCLLNNFYPREAKVQWKVDNALQSGNSQESVTEQDSKDSTYSLSSTLTLSKADYEKHKVYACEVTHQGLSSPVTKSFNRGEC
% agg by SEC [1]: 5.1% | IC50 [2]: 0.09 nM
